The supplement of paper PMC6206098
± gives the uncertainty stated by the source. Shown are siRNA guide strands that differ only in the seed, positions 2 to 7.

Tests used:
3LL = test: cell viability relative to siNT1 control; higher = less toxic; settings: concentration: 10 nM; 96 h; Mus musculus;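 also: Luminescence-based viability of cells reverse transfected in 384-well plates with lipid-complexed siRNAs built on a non-toxic 19mer backbone whose passenger strand carries 2′-O-methyl groups at positions 1 and 2, triplicates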
Experimental: (§1)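 Arrayed screen of 4096 siRNA duplexes, each carrying one of all possible 6mer seeds at guide-strand positions 2-7 in a fixed neutral 19mer scaffold (constant flanks: U at position 1, then ACAUGUAAACCA, plus a 3' AA overhang). The passenger strand is 2'-O-methylated at positions 1-2 so only the guide strand loads into RISC. Duplexes were reverse-transfected at 10 nM with RNAiMAX in triplicate in 384-well plates; viability was read by CellTiter-Glo ATP content 96 h after transfection. Values are % viability normalised to lipid-only wells (HeyA8, H460, M565) or to siNT1 (3LL).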

H460 = test: cell viability relative to lipid-only control; HeyA8 human ovarian and H460 human lung cancer; M565 mouse liver and 3LL mouse lung cancer; siNT1 is a non-toxic control siRNA; higher = less toxic; settings: concentration: 10 nM; 96 h; Homo sapiens
Experimental: as §1

HeyA8 = test: as above; settings: concentration: 10 nM; 96 h; Homo sapiens
Experimental: as §1

M565 = test: as above; settings: concentration: 10 nM; 96 h; Mus musculus
Experimental: as §1
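For cell viability relative to lipid-only control in this document: reverse lipid transfection in 384-well plates, in triplicate, of duplexes on a non-toxic 19mer backbone with passenger strand 2′-O-methylated at positions 1 and 2, luminescence viability read-out.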

| Sequence | cell viability (3LL) | cell viability (H460) | cell viability (HeyA8) | cell viability (M565) |
| --- | --- | --- | --- | --- |
| UAAGGCUACAUGUAAACCAAA | 15.1 ± 7% | 49.3 ± 9.8% | 11.5 ± 1.4% | 7.19 ± 2.5% |
| UAAGGGAACAUGUAAACCAAA | 84.5 ± 8.4% | 84.9 ± 30% | 83.3 ± 12% | 57.8 ± 0.74% |
| UAAGGGCACAUGUAAACCAAA | 22.7 ± 2.5% | 46.7 ± 12% | 25.9 ± 5.5% | 8.51 ± 3.7% |
| UAAGGGGACAUGUAAACCAAA | 79.5 ± 8.2% | 86.6 ± 8.8% | 67.6 ± 5.1% | 63 ± 7% |
| UAAGGGUACAUGUAAACCAAA | 76.4 ± 9.5% | 66.5 ± 0.79% | 39.1 ± 3.4% | 19.7 ± 4.3% |
| UAAGGUAACAUGUAAACCAAA | 89.9 ± 6.1% | 70.3 ± 11% | 95.1 ± 15% | 73.6 ± 8.4% |
| UAAGGUCACAUGUAAACCAAA | 42.4 ± 3% | 57.5 ± 7.5% | 48.1 ± 5.2% | 10.6 ± 1.6% |
| UAAGGUGACAUGUAAACCAAA | 80.3 ± 5.1% | 99.3 ± 8.9% | 88.4 ± 9.4% | 48.4 ± 3.7% |
| UAAGGUUACAUGUAAACCAAA | 78.9 ± 4.2% | 60.6 ± 5.8% | 74.9 ± 6% | 45 ± 4.4% |
| UAAGUAAACAUGUAAACCAAA | 96.3 ± 2.1% | 66.5 ± 8% | 95.2 ± 13% | 90.9 ± 5.2% |
| UAAGUACACAUGUAAACCAAA | 64.6 ± 8.8% | 35.5 ± 6.2% | 33.5 ± 4.4% | 66 ± 7.8% |
| UAAGUAGACAUGUAAACCAAA | 83.6 ± 13% | 88.6 ± 15% | 75.8 ± 13% | 75.2 ± 12% |
| UAAGUAUACAUGUAAACCAAA | 81.6 ± 3% | 57.6 ± 5.7% | 64.6 ± 11% | 64.2 ± 2.4% |
| UAAGUCAACAUGUAAACCAAA | 79.6 ± 6% | 91.9 ± 11% | 81.9 ± 16% | 62.59 ± 0.61% |
| UAAGUCCACAUGUAAACCAAA | 31.7 ± 4.7% | 46.8 ± 4% | 27.7 ± 4.9% | 11 ± 1.9% |
| UAAGUCGACAUGUAAACCAAA | 80.9 ± 12% | 81.7 ± 22% | 81.2 ± 18% | 62.5 ± 9.7% |
| UAAGUCUACAUGUAAACCAAA | 59.3 ± 10% | 75.2 ± 15% | 56.7 ± 5.3% | 36 ± 4.5% |
| UAAGUGAACAUGUAAACCAAA | 86.9 ± 6.6% | 58.1 ± 2.2% | 81.7 ± 15% | 59.5 ± 12% |
| UAAGUGCACAUGUAAACCAAA | 76.6 ± 7.2% | 63.1 ± 11% | 56.2 ± 9.9% | 103 ± 15% |

| Sequence | cell viability (3LL) | cell viability (H460) | cell viability (HeyA8) | cell viability (M565) |
| --- | --- | --- | --- | --- |
| UAAGUGGACAUGUAAACCAAA | 66.3 ± 6.8% | 64.3 ± 12% | 56.2 ± 10% | 82.3 ± 10% |
| UAAGUGUACAUGUAAACCAAA | 52.3 ± 5.4% | 62.4 ± 8.8% | 67.5 ± 10% | 31.9 ± 2.8% |
| UAAGUUAACAUGUAAACCAAA | 86.6 ± 7.2% | 69.9 ± 7.3% | 84.7 ± 15% | 66.1 ± 12% |
| UAAGUUCACAUGUAAACCAAA | 61.3 ± 4.2% | 58.6 ± 4.7% | 52.7 ± 6.7% | 19.2 ± 1.6% |
| UAAGUUGACAUGUAAACCAAA | 85.4 ± 6.9% | 65.3 ± 5.5% | 77.7 ± 13% | 69.4 ± 3.8% |
| UAAGUUUACAUGUAAACCAAA | 79.3 ± 3.4% | 78.1 ± 15% | 57.5 ± 6.8% | 64.2 ± 11% |
| UAAUAAAACAUGUAAACCAAA | 122 ± 9.8% | 112 ± 5.2% | 101 ± 3.8% | 89.9 ± 16% |
| UAAUAACACAUGUAAACCAAA | 89.4 ± 18% | 77.4 ± 4.9% | 78.1 ± 4.7% | 89.5 ± 17% |
| UAAUAAGACAUGUAAACCAAA | 115 ± 6.1% | 98.2 ± 5.5% | 89.2 ± 5.5% | 93.4 ± 22% |
| UAAUAAUACAUGUAAACCAAA | 112 ± 12% | 75 ± 6.5% | 81.3 ± 10% | 73.6 ± 20% |
| UAAUACAACAUGUAAACCAAA | 121 ± 12% | 101 ± 8.5% | 90.4 ± 9% | 102 ± 19% |
| UAAUACCACAUGUAAACCAAA | 36 ± 2.4% | 75 ± 3.4% | 61.6 ± 5.8% | 71.1 ± 3.2% |
| UAAUACGACAUGUAAACCAAA | 124 ± 13% | 93 ± 6.5% | 97.4 ± 4.9% | 109 ± 21% |
| UAAUACUACAUGUAAACCAAA | 106 ± 4.5% | 107 ± 10% | 91.8 ± 9.8% | 86.6 ± 5.7% |
| UAAUAGAACAUGUAAACCAAA | 119 ± 17% | 80.9 ± 3.7% | 95.8 ± 4.2% | 95.2 ± 12% |
| UAAUAGCACAUGUAAACCAAA | 26 ± 2.9% | 29.7 ± 1.2% | 38.2 ± 3.8% | 12.4 ± 1.9% |
| UAAUAGGACAUGUAAACCAAA | 96.6 ± 6.3% | 75.1 ± 3.4% | 87.5 ± 9.3% | 93.9 ± 7.4% |
| UAAUAGUACAUGUAAACCAAA | 5.85 ± 2.3% | 43.7 ± 3.8% | 62.5 ± 4.7% | 29.3 ± 8.2% |
| UAAUAUAACAUGUAAACCAAA | 121 ± 7.5% | 89.4 ± 13% | 99.5 ± 4.8% | 93.1 ± 1.2% |

| Sequence | cell viability (3LL) | cell viability (H460) | cell viability (HeyA8) | cell viability (M565) |
| --- | --- | --- | --- | --- |
| UAAUAUCACAUGUAAACCAAA | 41.1 ± 7.8% | 81.2 ± 9.6% | 72.2 ± 3.3% | 82.8 ± 5.1% |
| UAAUAUGACAUGUAAACCAAA | 118 ± 7.8% | 75.5 ± 4% | 86 ± 11% | 75.5 ± 7.5% |
| UAAUAUUACAUGUAAACCAAA | 106 ± 11% | 79.3 ± 9.3% | 82.6 ± 9.2% | 96.8 ± 3.5% |
| UAAUCAAACAUGUAAACCAAA | 117 ± 16% | 66.3 ± 4% | 86.5 ± 1.9% | 79 ± 5% |
| UAAUCACACAUGUAAACCAAA | 98.4 ± 10% | 63.4 ± 6.4% | 73.4 ± 10% | 73.4 ± 11% |
| UAAUCAGACAUGUAAACCAAA | 111 ± 18% | 78.8 ± 1.7% | 64.1 ± 1.6% | 82 ± 3.6% |
| UAAUCAUACAUGUAAACCAAA | 113 ± 6.7% | 76.9 ± 8.3% | 95 ± 4.5% | 80.4 ± 4.5% |
| UAAUCCAACAUGUAAACCAAA | 102 ± 8.5% | 74.2 ± 6.6% | 92.5 ± 7.1% | 77.6 ± 3.7% |
| UAAUCCCACAUGUAAACCAAA | 4.72 ± 1.4% | 38 ± 1.9% | 29.7 ± 0.79% | 35.7 ± 4.5% |
| UAAUCCGACAUGUAAACCAAA | 99.6 ± 4.7% | 69 ± 8.7% | 90.3 ± 8.1% | 81.4 ± 5.2% |
| UAAUCCUACAUGUAAACCAAA | 37 ± 6.5% | 58.5 ± 5.2% | 76.7 ± 4.1% | 60.3 ± 8.8% |
| UAAUCGAACAUGUAAACCAAA | 108 ± 3.9% | 68.2 ± 6% | 94.5 ± 4.7% | 94.8 ± 17% |
| UAAUCGCACAUGUAAACCAAA | 57.8 ± 3.4% | 60.2 ± 1.7% | 67.8 ± 3.5% | 82.1 ± 18% |
| UAAUCGGACAUGUAAACCAAA | 85.9 ± 2.4% | 82 ± 20% | 91 ± 7.3% | 77.6 ± 7.2% |
| UAAUCGUACAUGUAAACCAAA | 111 ± 11% | 83.3 ± 13% | 99.3 ± 8.9% | 81.6 ± 16% |
| UAAUCUAACAUGUAAACCAAA | 123 ± 7.4% | 113 ± 18% | 107 ± 6.4% | 89.6 ± 19% |
| UAAUCUCACAUGUAAACCAAA | 102 ± 8.2% | 61 ± 14% | 64.9 ± 4.9% | 96.4 ± 18% |
| UAAUCUGACAUGUAAACCAAA | 112 ± 5.2% | 85.2 ± 12% | 96.2 ± 11% | 77.4 ± 7.5% |
| UAAUCUUACAUGUAAACCAAA | 122 ± 10% | 92.2 ± 14% | 68.6 ± 3% | 93.4 ± 23% |
